A lower IC50 marks a more sensitive line; where the fit passes the top or lowest dose, that dose stands as a limit. For AUC the same curve is integrated over the 256-fold range of doses and scaled to a fraction; it is 1 without any effect and falls as sensitivity rises. For part of these data: Where the top dose is marked as inferred, it was derived from the fitted curves, not read from the paper. For part of these data: An entry number marks a drug with two screens in the source, which often give different values.
How the values were obtained:
Assay in all cases: Viability of human cancer cell lines after 72 h of drug (GDSC screen)
[1] = compound: CC1(C)CC(=O)c2c(C(F)(F)F)nn(-c3ccc(C(N)=O)c(N[C@H]4CC[C@H](O)CC4)c3)c2C1 [SNX-2112]; settings: top dose 2.56 µM
Description: (§1)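 Human cancer cell lines in 384-well plates, medium with 10% serum, drug for 72 h over a 256-fold dose range (nine 2-fold or five 4-fold steps up to the top dose). Adherent lines were fixed and stained with the nucleic acid dye Syto60, suspension lines read with resazurin; signal relative to control wells, capped at 0 and 100%. One two-parameter sigmoid per drug and line, fitted in a mixed model over all curves with the slope shared within a line.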

[2] = compound: CN(C)C/C=C/C(=O)Nc1cc2c(Nc3ccc(F)c(Cl)c3)ncnc2cc1O[C@H]1CCOC1 [Afatinib]
Description: as §1

[3] = compound: CN(c1ncccc1CNc1nc(Nc2ccc3c(c2)CC(=O)N3)ncc1C(F)(F)F)S(C)(=O)=O [PF-562271]; settings: top dose 2.56 µM; top dose inferred
Description: as §1

[4] = compound: O=C(NC1CC1)c1cccc(-c2ccc3c(NC(=O)C4CC4)n[nH]c3c2)c1 [XMD13-2]; settings: top dose 10.24 µM; top dose inferred
Description: as §1

[5] = top dose 0.5 µM, screen: GDSC drug entry 1032
[6] = top dose 10 µM, screen: GDSC drug entry 1377, top dose inferred

Cell Line | AUC [1] | IC50 [1] [nM] | AUC [2, 5] | IC50 [2, 5] [nM] | AUC [2, 6] | IC50 [2, 6] [nM] | AUC [3] | IC50 [3] [nM] | AUC [4] | IC50 [4] [nM]
MDA-MB-453 (breast, adherent) | 0.32 | 47.3 | 0.967 | > 500 | 0.872 | > 10000 | 0.95 | > 2560 | 0.842 | 8400
MDA-MB-468 (breast, adherent) | 0.496 | 156 | 0.844 | 337 | 0.856 | 7560 | 0.874 | 2340 | 0.871 | 9020
ME-180 (cervix, adherent) | 0.505 | 165 | 0.83 | 332 | 0.793 | 4790 | 0.978 | > 2560 | 0.788 | 4710
MES-SA (uterus, adherent) | 0.99 | > 2560 | 0.992 | > 500 | 0.978 | > 10000 | 0.845 | 1460 | 0.965 | > 10200
MFE-319 (endometrium, adherent) | 0.864 | 2130 | – | – | 0.835 | 6300 | 0.873 | 2340 | 0.938 | > 10200
MFH-ino (soft tissue, adherent) | 0.52 | 183 | 0.945 | > 500 | 0.962 | > 10000 | 0.868 | > 2560 | 0.969 | > 10200
MKN1 (stomach, adherent) | 0.723 | 713 | – | – | 0.897 | > 10000 | 0.887 | > 2560 | 0.951 | > 10200
ML-1 (thyroid, adherent) | 0.789 | 1340 | – | – | 0.962 | > 10000 | 0.841 | 2230 | 0.947 | > 10200
MZ7-mel (melanoma, adherent) | 0.572 | 253 | – | – | 0.985 | > 10000 | 0.946 | > 2560 | 0.973 | > 10200
NB7 (neuroblastoma, adherent) | 0.625 | 359 | – | – | 0.873 | > 10000 | 0.878 | > 2560 | 0.931 | > 10200
NCI-H23 (lung adenocarcinoma, adherent) | 0.758 | 883 | 0.98 | > 500 | 0.975 | > 10000 | 0.982 | > 2560 | 0.982 | > 10200
NCI-H196 (small cell lung carcinoma, adherent) | 0.77 | 1020 | – | – | 0.987 | > 10000 | 0.985 | > 2560 | 0.988 | > 10200
NCI-H226 (lung squamous cell carcinoma, adherent) | 0.357 | 63 | 0.987 | > 500 | 0.969 | > 10000 | 0.927 | > 2560 | 0.953 | > 10200
NCI-H510A (small cell lung carcinoma, semi-adherent) | 0.715 | 611 | 0.98 | > 500 | – | – | 0.902 | > 2560 | 0.98 | > 10200
NCI-H522 (lung adenocarcinoma, adherent) | 0.714 | 729 | – | – | 0.848 | 9650 | 0.949 | > 2560 | 0.934 | > 10200
NCI-H661 (large cell lung carcinoma, adherent) | 0.795 | 1480 | 0.874 | > 500 | 0.888 | > 10000 | 0.944 | > 2560 | 0.895 | > 10200
NCI-H838 (lung adenocarcinoma, adherent) | 0.605 | 314 | 0.985 | > 500 | 0.97 | > 10000 | 0.901 | > 2560 | 0.976 | > 10200
NCI-H1299 (large cell lung carcinoma, adherent) | 0.815 | 1820 | – | – | 0.861 | > 10000 | 0.924 | > 2560 | 0.93 | > 10200
NCI-H1355 (lung adenocarcinoma, adherent) | 0.963 | > 2560 | – | – | 0.856 | > 10000 | 0.951 | > 2560 | 0.971 | > 10200
NCI-H1573 (lung adenocarcinoma, adherent) | 0.857 | 1980 | – | – | 0.978 | > 10000 | 0.991 | > 2560 | 0.99 | > 10200
NCI-H1703 (lung adenocarcinoma, adherent) | 0.733 | 869 | 0.98 | > 500 | 0.959 | > 10000 | 0.956 | > 2560 | 0.851 | > 10200
NCI-H1993 (lung adenocarcinoma, adherent) | 0.928 | > 2560 | 0.943 | > 500 | 0.981 | > 10000 | 0.971 | > 2560 | 0.971 | > 10200
NCI-H2085 (lung adenocarcinoma, adherent) | 0.724 | 733 | – | – | 0.955 | > 10000 | 0.926 | > 2560 | 0.977 | > 10200
NCI-H2110 (non-small cell lung carcinoma, adherent) | 0.314 | 47.7 | 0.862 | 445 | 0.899 | > 10000 | 0.929 | > 2560 | 0.977 | > 10200
NUGC-3 (stomach, adherent) | 0.81 | 1560 | – | – | 0.576 | 1040 | 0.92 | > 2560 | 0.971 | > 10200
OAW-28 (ovary, adherent) | 0.983 | > 2560 | – | – | 0.912 | > 10000 | 0.966 | > 2560 | 0.895 | > 10200
OSC-19 (head and neck, adherent) | 0.708 | 636 | – | – | 0.696 | 2280 | 0.932 | > 2560 | 0.944 | > 10200

Source: the supplement of paper PMC4967469
